Reference: PubChem BioAssay AID1159614 (National Center for Advancing Translational Sciences (NCATS), 2016)
Among all 45,000 compounds or so, about 65 (0.1%) were called active. Calls come from the whole dose curve; as a rule, active = well fitted activation curve with a large enough effect; inconclusive = small, poorly fitted or top-dose-only effect; inactive = no such curve, though single readings can be large or run the other way. The list shows a part of the results.

What follows are compounds tested against Galactocerebrosidase (Homo sapiens) (UniProt P54803) (assay: A Novel Cell-Based Assay to Identify Small Molecules for B -Galactocerebrosidase). Conditions: 145M-Twi-hGALC-G270D cells (Twitcher mouse brain line with human GALC G270D), HMU-beta-Gal fluorescence, 48 h; series mostly up to 57.5 µM; activation: at the top concentration.
Sequence of UniProt P54803 (P54803 whole entry, looked up): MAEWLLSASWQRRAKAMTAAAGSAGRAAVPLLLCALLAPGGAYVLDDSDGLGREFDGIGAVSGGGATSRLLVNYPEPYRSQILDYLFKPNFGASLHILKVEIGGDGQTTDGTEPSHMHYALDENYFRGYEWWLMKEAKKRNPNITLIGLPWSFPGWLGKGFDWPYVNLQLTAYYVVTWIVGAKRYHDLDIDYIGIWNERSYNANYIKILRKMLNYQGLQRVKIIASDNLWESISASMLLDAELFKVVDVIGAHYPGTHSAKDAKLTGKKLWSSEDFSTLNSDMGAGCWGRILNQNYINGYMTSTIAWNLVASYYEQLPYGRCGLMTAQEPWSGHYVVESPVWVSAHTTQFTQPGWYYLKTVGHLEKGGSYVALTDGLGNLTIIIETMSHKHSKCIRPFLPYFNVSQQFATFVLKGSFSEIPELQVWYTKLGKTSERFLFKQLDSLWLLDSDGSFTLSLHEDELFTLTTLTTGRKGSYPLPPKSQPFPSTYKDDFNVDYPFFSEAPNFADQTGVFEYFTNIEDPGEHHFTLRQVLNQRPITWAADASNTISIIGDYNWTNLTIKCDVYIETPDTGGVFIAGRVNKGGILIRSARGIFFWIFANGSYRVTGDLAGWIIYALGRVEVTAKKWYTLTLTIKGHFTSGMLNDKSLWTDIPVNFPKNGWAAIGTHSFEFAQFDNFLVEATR
In short: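 Fluorogenic HMU-b-Gal hydrolysis (0.1 mM final, pH 5.2 citrate-phosphate with 1 mg/mL sodium taurocholate; carbonate stop buffer) measures mutant GALC activity after compound treatment of live 145M-Twi Twitcher brain cells stably carrying human GALC-G270D, with wild-type GALC line alongside; activation sought.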
Note: nearly all actives have a fitted effect of over 65% in size.
Potency is the fitted concentration of half-maximal effect.
Throughout, for activation: 0% is about no effect.

| SMILES | activation | Potency |
| --- | --- | --- |
| COc1ccc(S(=O)(=O)n2nc(C)c(S(=O)(=O)N3CCCCCC3)c2C)cc1OC | inactive: 9.55% | – |
| O=C(NCc1ccco1)C1CCN(C(=O)N2CCOc3ccc(Cl)cc32)CC1 | inactive: -10.9% | – |
| CN(C)S(=O)(=O)c1ccc2c(c1)N(CC(=O)NCc1cccc(Br)c1)C(=O)CS2 | inactive: -15.9% | – |
| Cc1cc2nc(-c3ccc(Cl)cc3)cc(C(F)(F)F)n2n1 | inactive: 16.5% | – |
| O=S(=O)(NCCc1csc2nc(-c3ccc(Cl)cc3)nn12)c1ccc(Oc2ccccc2)cc1 | inactive: -12.1% | – |
| CC(=O)c1cccc(NC(=O)CSc2nnc3ccc(-c4ccc(C)cc4)nn23)c1 | inactive: -16.5% | – |
| Cc1ccccc1-c1nc(C(N)=O)c2c(n1)n(-c1ccc3c(c1)OCO3)c(=O)n2C | inactive: -14.1% | – |
| Nc1ccncc1N | inactive: -10.6% | – |
| Cc1ccc(C)c(Cn2c(=O)n(Cc3ccc(C(=O)NC4CCN(Cc5ccccc5)CC4)cc3)c(=O)c3ccccc32)c1 | inactive: -7.25% | – |
| Cc1ccc(-c2nnc(NC(=O)c3ccc4c(c3)OCCO4)o2)c(C)c1 | inactive: -9.76% | – |
| Cc1cc2c(cc1S(=O)(=O)CCC(=O)NC1CCC(C)CC1)OCC(=O)N2 (stereo not drawn) | inactive: 0.832% | – |
| COc1ccccc1-c1nnc2n(CCc3ccccc3)c(=O)c3ccccc3n12 | inactive: -11.9% | – |
| O=c1cc2nc(-c3cccs3)nc(SCCOc3ccc(Cl)cc3)n2[nH]1 | inactive: -22.3% | – |
| CCn1c(=N)c(C(=O)NC2CCCCC2)cc2c(=O)n3cccc(C)c3nc21 | – | active: 28.2 µM |
| O=C1CC(c2nnc(Cc3ccc(Cl)cc3)o2)CN1c1ccccc1 (stereo not drawn) | inactive: -12.9% | – |
| O=C(CC1C(=O)N(c2ccc(F)cc2)C(=O)N1Cc1ccc2c(c1)OCO2)Nc1ccc(F)cc1 (stereo not drawn) | inactive: -12.9% | – |
| CC(=O)N1c2ccccc2CC1C(=O)N1CCN(c2cccc(Cl)c2)CC1 (stereo not drawn) | inactive: -11.3% | – |
| Cc1ccc(O)c(NC(=O)c2noc3c2CCCCC3)c1 | inactive: -18.7% | – |
| COc1cccc(-n2cc(C(=O)Oc3cccc(C(F)(F)F)c3)c3ccccc3c2=O)c1 | inactive: -13.8% | – |
| Cc1ccc(C)c(CN2C(=O)c3ccccc3S(=O)(=O)c3ccc(C(=O)N4CCCC4)cc32)c1 | inactive: -1.81% | – |
| Nc1c(-c2nc(-c3cccs3)no2)nnn1-c1cccc(F)c1 | inactive: -9.85% | – |
| CCc1ccc(NC(=O)c2ccc3oc(=O)n(Cc4ccccc4)c3c2)cc1 | inactive: -2.67% | – |
| CCN(c1ncnc2c1cnn2-c1cc(Cl)ccc1C)C1CCCCC1 | inactive: -12.8% | – |
| COc1cccc(CNC(=O)CN2C(=O)CCCc3ccccc32)c1OC | inactive: -2.88% | – |
| CCOc1ccc(OCC)c(NC(=O)C(NS(=O)(=O)c2ccc(Br)s2)c2ccccc2)c1 (stereo not drawn) | inactive: -1.04% | – |

| SMILES | activation | Potency |
| --- | --- | --- |
| CCCN(CCC)C(=O)Cn1c(=O)n(-c2ccc(C)cc2)c(=O)c2ccc(C(=O)NCc3ccccc3Cl)cc21 | inactive: -10.9% | – |
| CNC(=O)C1CCN(Cc2cc3ccccc3n2Cc2ccccc2C)CC1 | inactive: -8.81% | – |
| CCc1sc(Nc2ccc(C)cc2Br)nc1-c1cc2cccc(OC)c2oc1=O | inactive: -11% | – |
| CC(=O)NCCNc1nc2c(-c3ccc(C)cc3)nnn2c2ccccc12 | inactive: -5.23% | – |
| CCOC(=O)CSc1nc2c(sc3ccccc32)c(=O)n1Cc1ccc(C)cc1 | inactive: -13.8% | – |
| CCC1CN(C(=O)N2CCC(C(=O)NCCc3ccc(C)cc3)CC2)c2ccccc2O1 (stereo not drawn) | inactive: -4.8% | – |
| CCCCNC(=O)Cn1c(=O)cc(C)c2c(C)nn(-c3ccc(CC)cc3)c21 | inactive: -11.7% | – |
| Cc1ccc(-n2nc(CO)c(C(=O)NCC(c3ccccc3)c3ccccc3)n2)cc1 | inactive: 5.17% | – |
| O=C(NCc1cccc(Br)c1)C1CCN(C(=O)c2sccc2-n2cccc2)CC1 | inactive: -10.2% | – |
| O=C(CCc1nnc2n(Cc3ccccc3Cl)c(=O)c3ccccc3n12)Nc1ccc(F)c(F)c1 | inactive: -10% | – |
| Cc1oc(-c2ccccc2)nc1CSc1nnc(C)n2c1cc1sccc12 | inactive: 2.33% | – |
| CCOCCCNC(=O)CCC(=O)NNc1nc2ccccc2c2nc(-c3ccccc3)nn12 | inactive: -14.2% | – |
| Cc1ccc(-c2cn3c(n2)sc2cc(C(=O)NCc4cccs4)ccc23)cc1 | inactive: -23% | – |
| COc1cccc(NC(=O)CSc2nc3c([nH]c4ccccc43)c(=O)n2-c2ccccc2)c1 | inactive: -21.3% | – |
| CCOc1ccccc1NC(=O)CSc1nnc(N)s1 | inactive: -7.78% | – |
| Cc1ccc(NC(=O)CSc2nnc(C)n3c2cc2sccc23)c(C)c1 | inactive: -8.87% | – |
| CCCN1C(=O)c2[nH]nc(-c3ccccc3O)c2C1c1cccc(OCc2ccccc2)c1 (stereo not drawn) | inactive: -6.83% | – |
| Brc1ccc(-c2nnc3sc(CN4CCCCC4)cn23)cc1 | inactive: -16% | – |
| Cc1ccccc1-c1nnc(CN2CCN(c3cccc(C)c3C)CC2)o1 | inactive: -9.49% | – |
| CCC(=O)Nc1ccccc1-c1nc2ccccc2n(CC(=O)c2ccc(C)c(C)c2)c1=O | inactive: -14.9% | – |
| COc1cc(C(=O)NCC(c2cccnc2)N2CCc3ccccc3C2)cc(OC)c1OC (stereo not drawn) | inactive: -8.23% | – |
| COCCNC(=O)C(=O)NCC(c1cccnc1)N1CCN(c2ccccc2OC)CC1 (stereo not drawn) | inactive: -6.38% | – |
| O=C(NCc1ccccc1Cl)c1cc2c(s1)-c1ccccc1SC2 | inactive: -5.9% | – |
| Cc1ccc(CSc2ccc(-c3cccs3)nn2)cc1 | inactive: -15.1% | – |
| O=C(Cn1ncc2c3ccccc3n(Cc3ccccc3F)c2c1=O)NC1CCCCCC1 | inactive: -13.2% | – |

| SMILES | activation | Potency |
| --- | --- | --- |
| CC(C)(C)NC(=O)c1cnn(-c2ccccc2)c1C1CCN(C(=O)OC(C)(C)C)CC1 | inactive: -10.3% | – |
| COc1cc(C2c3c(-c4c(C)cc(C)cc4O)n[nH]c3C(=O)N2CCO)cc(OC)c1OC (stereo not drawn) | inactive: -19.2% | – |
| Cc1ccc(-c2cc(-c3ccc4c(c3)NC(=O)CO4)nc3c2COc2ccc(C)cc2-3)cc1 | inactive: 13.9% | – |
| CN(C)S(=O)(=O)c1ccc(C(=O)NCCS(=O)(=O)N2CCN(c3ccccc3)CC2)cc1 | inactive: -13.7% | – |
| Cc1nc2nc(SCc3c(F)cccc3Cl)nn2c(C)c1Cc1ccccc1 | inactive: 2.7% | – |
| Cc1ccc(CN(C(=O)COc2ccc(Cl)c(C)c2)c2ccccn2)o1 | inactive: -21.8% | – |
| Cc1oc2ncn(C)c(=O)c2c1C(=O)Nc1ccccn1 | inactive: -7.36% | – |
| O=C(CN1C(=O)COc2ccc(S(=O)(=O)N3CCOCC3)cc21)N1CCN(c2cccc(C(F)(F)F)c2)CC1 | inactive: -13% | – |
| C[C@]12CCC(=O)C=C1C=C[C@@H]1[C@@H]2CC[C@@]2(C)[C@H]1CC[C@@]21CCC(=O)O1 | inactive: -1.39% | – |
| Cc1ccc(C(=O)/C=C/c2cn(CC(O)CN3CCc4ccccc43)c3ccccc23)cc1 (stereo not drawn) | inactive: -5.51% | – |
| Cc1cc(-n2c(C)nc3ccccc3c2=O)ccc1NC(=O)c1ccc(C)c([N+](=O)[O-])c1 | inactive: -43.6% | – |
| COc1ccc(-c2noc(COc3cc(C)c(Br)c(C)c3)n2)cc1OC | inactive: -17.1% | – |
| Cc1cc(NC(=O)c2ccccc2Cl)ccc1NC(=O)c1ccccc1 | inactive: -18.6% | – |
| COc1ccc(OC)c(CNC(=O)c2cc3cc4ccc(OC)cc4nc3o2)c1 | inactive: -16.9% | – |
| COC(=O)[C@@H](N)Cc1ccc(O)c(O)c1 | inactive: -20.5% | – |
| Cc1ccc(-c2nn(CC(=O)NC3CCCC3)c3c2cnc2ccc(F)cc23)cc1C | inactive: -12.8% | – |
| Cc1cc(S(=O)(=O)C(CNC(=O)COc2ccccc2)c2cccs2)ccc1F (stereo not drawn) | inactive: -8.15% | – |
| Cc1ccc(CN2CCC(CNC(=O)c3cc4ccc5cccnc5c4[nH]3)CC2)cc1 | inactive: -16.4% | – |
| CCOc1cc2sc(N3CCC(C(=O)Nc4ccccc4Cl)CC3)nc2cc1Br | inactive: -4.71% | – |
| COc1ccc(OCCSc2nc(C)c(Cc3ccccc3)c(=O)[nH]2)cc1 | inactive: -7.69% | – |
| COc1ccc(Oc2nc3c(c(=O)n(C)c(=O)n3C)n2Cc2ccccc2Cl)cc1 | inactive: -17.6% | – |
| COc1ccccc1Cn1cc(C(=O)c2ccc(Cl)cc2)c(=O)c2cc3c(cc21)OCCO3 | inactive: -13.5% | – |
| COc1ccc(NC(=O)CCN2CCN(CCO)CC2)c(OC)c1 | inactive: -11.8% | – |
| O=C(Nc1ccc2nc(SCc3ccccc3)sc2c1)c1cccc(F)c1 | inactive: -12% | – |
| Cc1ccccc1C(=O)Nc1nnc(SCc2cc(=O)n3ccccc3n2)s1 | inactive: -8.73% | – |

| SMILES | activation | Potency |
| --- | --- | --- |
| CCOc1ccc(C(=O)CSc2nnc3cc(C)c4ccccc4n23)cc1 | inactive: -13% | – |
| CCOc1cc(C(=O)Nc2nnc3n2CCS3)cc(OCC)c1OCC | inactive: -19.3% | – |
| COc1ccccc1CNC(=O)COc1cc(=O)n(C)c2ccccc12 | inactive: -8.93% | – |
| CN1CCN(C(=O)c2ccc3c(c2)N(Cc2c(F)cccc2Cl)C(=O)c2ccccc2S3)CC1 | inactive: -2.46% | – |
| CCc1sc(Nc2ccc(Cl)cc2)nc1-c1cc2cccc(OC)c2oc1=O | inactive: 2.44% | – |
| Cc1cc(OCC(=O)Nc2cc(-c3nc4ccccc4[nH]3)ccc2C)ccc1Cl | inactive: -13.9% | – |
| CCSc1oc(-c2ccc(F)cc2)nc1S(=O)(=O)c1ccc(C)cc1 | inactive: -28.3% | – |
| CC(C(=O)Nc1ccc(F)c(Cl)c1)N1Cc2ccccc2C1=O (stereo not drawn) | inactive: -16.7% | – |
| COc1ccc(-c2noc(N3CCN(c4cccc(Cl)c4)CC3)n2)cc1OC | inactive: -5.56% | – |
| CCCCC(CC)CNC(=O)c1ccc2c(=O)n(CCOC)c(=O)[nH]c2c1 (stereo not drawn) | inactive: -9.69% | – |
| CC(=O)c1cccc(S(=O)(=O)N2CCN(c3ccccc3F)CC2)c1 | inactive: -11.6% | – |
| Cc1ccc(N(CC(=O)NCC(C)c2ccccc2)S(=O)(=O)N(C)C)cc1 (stereo not drawn) | inactive: 2.28% | – |
| CC(C)(C)c1ccc(C(=O)NCC(c2cccs2)S(=O)(=O)c2ccc(F)cc2)cc1 (stereo not drawn) | inactive: -28.7% | – |
| Cc1ccc(C(=O)c2cn(Cc3ccccc3F)c3cc4c(cc3c2=O)OCO4)cc1 | inactive: -6.78% | – |
| COC(=O)c1ccc(Cl)cc1NC(=O)N1CCC(CN2CCCC2)CC1 | inactive: -1.66% | – |
| N#C/C(=C\c1ccc(Br)cc1)c1nc(-c2cc3cc(Br)ccc3oc2=O)cs1 | inactive: -15.7% | – |
| O=C(Nc1ccc(Br)cc1)c1ccc(Br)c(S(=O)(=O)N2CCCCC2)c1 | inactive: -21.2% | – |
| COC(=O)c1c(NC(=O)COc2ccccc2Cl)sc2c1CCC(C(C)(C)C)C2 (stereo not drawn) | inactive: -13.3% | – |
| Cc1ccc(CCNC(=O)c2cc3sccc3n2Cc2ccc(F)cc2)cc1 | inactive: -11.7% | – |
| Cc1cn2c(=O)cc(COC(=O)c3cccc(NC(=O)COc4ccc(Cl)cc4)c3)nc2s1 | inactive: -5.87% | – |
| COc1ccc2cc3cc(C(=O)NCCc4ccccc4)sc3nc2c1Cl | inactive: -15.7% | – |
| CCc1ccc(S(=O)(=O)c2c[nH]c3cc(OC)c(OC)cc3c2=O)cc1 | inactive: -12.7% | – |
| CCc1ccccc1N(C)S(=O)(=O)c1ccc2[nH]cc(C(=O)NCCOC)c(=O)c2c1 | inactive: -18.5% | – |
